In the supplement of paper PMC11417369:
± gives the standard deviation of the averaged measurements. The list shows a part of the results.

The sequences below were run on PfAP2-I AP2 domain 3 (GST-tagged) (assay: gcPBM binding intensity (ln(normalized median fluorescence intensity)); higher = stronger DNA binding).
In short: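 Using an Agilent 4 × 180k array, primer-extended double-stranded 36-bp intergenic genomic probes and negative controls were exposed for 1 h to GST-fused P. falciparum DNA-binding domains expressed in E. coli. Binding was carried out in 1× PBS with 1% milk, 0.2 mg/ml BSA, 0.5% salmon testes DNA and 0.03% Triton X-100, and protein was detected with Alexa488 anti-GST antibody and a 488 nm scan. Binding intensity is the highest Masliner-normalised natural-log median intensity across replicate spots of either probe orientation.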

Row | Sequence | gcPBM binding intensity (ln)
1 | AAAAAAAATTCATATTGTACTTTTAAATTAAAGAAA [XGTACX_site4521] | 7.71 ± 0.2
2 | TTTATTTGTTCATGCGTGCACTTGATAACAATGTAC [GTGCAC_site9561] | 9.99 ± 0.53
3 | TTTTTTTTTGTTAAAGTGCATATATTAAATTTTCCT [GTGCAC_site9677] | 9.64 ± 0.3
4 | GGAAAAAAATATAAAAGTACTTTTTATTTATTTTAT [XGTACX_site7418] | 7.79 ± 0.4
5 | CGTTATATCAAAGGAGTGCATTATGAATACGTTTTA [GTGCAC_site9837] | 11.4 ± 0.65
6 | AGTGAATATCTAAAATGTACATAAATAAATAAATAA [XGTACX_site8293] | 8.22 ± 0.77
7 | AAAAAAATAACAAAAGTGCATTTTTATGAGTTATCT | 8.91 ± 0.19
8 | ATATATAATTAATAAAGTACATTAATTATTTCTTTT [XGTACX_site3034] | 7.46 ± 0.49
9 | TATAATTAAAATTTGTGTACGTATGACAAAACATTT [XGTACX_site7072] | 7.92 ± 0.52
10 | AGATACAAGCACTATAGTACACATACTAAAAATATA [XGTACX_site5849] | 8.55 ± 0.057
11 | TTTCCTTACCCTTTCCTGGTGTAGAAATTATACTCT [TGCATGCA_negctrl_site116] | 7.79 ± 0.56
12 | AATCATGCTCCGGAAAGTACATAAATAAATAAATAA [XGTACX_site1690] | 8.29 ± 0.69
13 | GAAAGGACAAGAATAGTGCACATGCAATGTTATTTT [GTGCAC_site9985] | 10.7 ± 0.11
14 | ACAAAATTTTTAAGAACACACAAAAATGTACTATCG [CACACA_site2550] | 7.71 ± 0.4
15 | AAAAAAAAAAAACATACACACATACATACATATATA [CACACA_site8222] | 7.5 ± 0.2
16 | CACATACACATACAAACACACATTATGTATATATAT [CACACA_site1599] | 8.16 ± 0.84
17 | ATATATACAACTAAAGAACACACATCATTGTTCATT [CACACA_site9224] | 7.6 ± 0.65
18 | AAACAATTTTTTAAAAGTACTTGAAAATTGTGAAAT [XGTACX_site2461] | 8.11 ± 0.19
19 | AAAAAAATTACGCAAGTGCATATAATTTAACAAAAA | 9.625 ± 0.007
20 | ATATATATATATCACGCACACACGAATTTTAAATAT [CACACA_site3131] | 9.55 ± 0.14
21 | AATGGTAATCCACATACACACACACCGACACATATA [CACACA_site8876] | 8.13 ± 0.5
22 | ATCGCGAAGTAGCATTCACACACAGCAAAATATATA [CACACA_site9162] | 7.75 ± 0.49

Row | Sequence | gcPBM binding intensity (ln)
23 | AACATTTATATAAAAGAACACACATATAAAATATTA [CACACA_site9199] | 7.62 ± 0.61
24 | CATTTACCCTTATTAACACACAAAATAAAATACGCT [CACACA_site7249] | 8.16 ± 0.25
25 | AAATAACAAAAGAAGGTGCTCATAAAAATTCATACA [GTGCAC_site9864] | 8.51 ± 0.28
26 | ATACAATGATATATACATATATATATATATATATAT [TGCATGCA_negctrl_site359] | 9.49 ± 0.96
27 | AAATTATAAAAAAAAAAAAAAAAAAAAAAAAAAAAA [XGTACX_negctrl_site501] | 8.24 ± 0.67
28 | AAAAAAAAAAAAAAAAAAAAAAAAAAAAAAAAAAAA [CACACA_negctrl_site204] | 10.5 ± 0.27
29 | AACAATAGTAAAAATACACACATTAAACTTCATTTC [CACACA_site2126] | 7.41 ± 0.57
30 | ATAGGCAAAAAGTGTACACATTCATTTATATAAATA [CACACA_site4480] | 8.31 ± 0.26
31 | AGATCTATTATTTTTTGTACTTATATATAAACTTAA [XGTACX_site1737] | 7.79 ± 0.69
32 | AATGGTATAAACAATACACACATAATATAAATATTG [CACACA_site6878] | 7.49 ± 0.5
33 | TTATATATAAATGTGTGTACTTATAAAATAATCATT [XGTACX_site5370] | 7.91 ± 0.28
34 | TTCTATATATTTGGAAGTACATTATATTTATTTTTT [XGTACX_site3172] | 7.58 ± 0.42
35 | TAAAATTTTTGTTTTTGTACGAAACATCAATTTTAC [XGTACX_site4963] | 7.5 ± 0.62
36 | CATATATAAATATGTACACACATATGTATGATCTCA [CACACA_site3868] | 7.815 ± 0.035
37 | TTATTTATAAGTAATATTATATATTCTTTTAATACA [CACACA_negctrl_site471] | 7.34 ± 0.39
38 | CGTATAACATATGACACACACACATACATACACAAA [CACACA_site1803] | 8.05 ± 0.33
39 | GATTTATATAATTCAAGTACTAAAAATATTTTTAAT [XGTACX_site5285] | 7.67 ± 0.5
40 | TAACATTAAAATAAAAGTACTTAATAATATTAAGTA [XGTACX_site5920] | 7.53 ± 0.2
41 | AAAAAAAATATCTATGCATGTAATATTATGATATTG [TGCATGCA_site546] | 7.76 ± 0.59
42 | TTAATAATAAATGAAAGTACATATAAAAAAAAAAAA [XGTACX_site717] | 8.04 ± 0.49
43 | AATAGTAAAAGATATACACACACCAAAAAATAGAAT [CACACA_site2289] | 8.13 ± 0.44
44 | ATTATACATATGTATGCACACATACATACACATATA [CACACA_site9155] | 8.72 ± 0.057
